Laboratory results as given in publication PMC4336329 (PLoS ONE, 2015).
In all, about 310,000 compounds went through this assay and about 14,000 (4.5%) showed an effect of 50% or more. The effect is printed as a negative number. Some of the results follow.

The compounds below were run against human ether-à-go-go-related gene (hERG) potassium channel (human, UniProt Q12809) (assay: primary screen, population patch clamp on CHO cells stably expressing hERG).
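Further: peak tail current of the secondary pulse compared with the same well before compound.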

human ether-à-go-go-related gene (hERG) potassium channel, sequence (Q12809 whole entry, looked up): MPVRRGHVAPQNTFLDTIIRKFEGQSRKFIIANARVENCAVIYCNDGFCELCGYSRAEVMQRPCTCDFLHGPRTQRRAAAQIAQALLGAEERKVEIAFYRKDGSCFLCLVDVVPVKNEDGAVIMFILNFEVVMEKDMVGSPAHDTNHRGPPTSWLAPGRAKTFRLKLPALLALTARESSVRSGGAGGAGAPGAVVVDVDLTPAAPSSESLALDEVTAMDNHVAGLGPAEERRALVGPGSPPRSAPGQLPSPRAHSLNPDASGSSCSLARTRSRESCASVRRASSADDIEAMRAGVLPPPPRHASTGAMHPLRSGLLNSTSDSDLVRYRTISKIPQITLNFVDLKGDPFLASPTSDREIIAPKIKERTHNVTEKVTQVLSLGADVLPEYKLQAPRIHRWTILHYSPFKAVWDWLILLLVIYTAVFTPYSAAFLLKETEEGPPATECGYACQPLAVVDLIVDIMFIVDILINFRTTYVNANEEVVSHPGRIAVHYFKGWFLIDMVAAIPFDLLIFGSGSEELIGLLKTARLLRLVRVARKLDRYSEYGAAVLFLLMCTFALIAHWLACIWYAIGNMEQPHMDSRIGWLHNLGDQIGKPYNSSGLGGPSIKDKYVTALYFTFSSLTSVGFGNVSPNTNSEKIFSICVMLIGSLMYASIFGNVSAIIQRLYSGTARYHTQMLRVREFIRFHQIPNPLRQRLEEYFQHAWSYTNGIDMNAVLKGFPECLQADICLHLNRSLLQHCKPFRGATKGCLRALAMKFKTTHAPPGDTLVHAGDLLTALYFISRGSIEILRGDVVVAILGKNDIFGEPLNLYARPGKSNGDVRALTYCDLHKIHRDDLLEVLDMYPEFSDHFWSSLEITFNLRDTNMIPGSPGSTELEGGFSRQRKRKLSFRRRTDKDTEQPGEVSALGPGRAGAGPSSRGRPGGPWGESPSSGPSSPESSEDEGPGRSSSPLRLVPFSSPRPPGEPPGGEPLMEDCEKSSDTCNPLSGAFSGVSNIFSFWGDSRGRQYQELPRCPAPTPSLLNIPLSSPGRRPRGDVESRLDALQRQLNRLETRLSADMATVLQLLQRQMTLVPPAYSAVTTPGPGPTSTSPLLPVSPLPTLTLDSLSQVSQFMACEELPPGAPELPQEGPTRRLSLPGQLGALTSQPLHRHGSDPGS

| Structure (SMILES) | hERG current change (%, negative = inhibition) at 10uM [%] |
| --- | --- |
| C(/CCc1ccccc1)=N\n1cnnc1 | 5.25 |
| O=c1c2ccccc2nc(/C=C/c2ccccn2)n1-c1ccccc1 | 10.9 |
| COc1ccc(C2CC(=O)C3=C(C2)NC(C)=C(C(=O)Nc2ccccc2C)C3c2coc3ccc(C)cc3c2=O)cc1OC (stereo not shown) | -8.61 |
| COc1ccccc1CC(=O)N1CCCC(CCC(=O)NCc2ccccc2F)C1 (stereo not shown) | 2.97 |
| CC1CC(C)CN(C(=O)COC(=O)c2cc([N+](=O)[O-])ccc2N2CCOCC2)C1 (stereo not shown) | -54.7 |
| Cc1csc(SC(C)C(=O)NC2CCCCC2C)n1 (stereo not shown) | 5.57 |
| CCOc1ccccc1NC(=O)CN1CCC(C(=O)c2ccc(OC)cc2)CC1 | -65.9 |
| O=C(NCc1ccccc1)C(c1ccc(O)cc1)N(C(=O)c1cnccn1)c1ccccc1 (stereo not shown) | 1.33 |
| Cc1c(C(=O)Nc2ccccc2F)sc2ncn(CC(=O)N3CCOCC3)c(=O)c12 | -4.4 |
| CCCCNC(=S)N1CCC(Cc2ccccc2)CC1 | -24.6 |
| COC(=O)C(Cc1ccc(N(CCCl)CCCl)cc1)N=Cc1ccccc1O (stereo not shown) | 19.4 |
| O=C(c1ccc(Cl)nc1)N1CCc2ccccc2C1 | -8.23 |
| Cc1ccc(O)c(NC(=O)c2cc(-c3ccccc3)on2)c1 | 13.6 |
| Cc1ccc(SC(C)C(=O)Nc2c(C)n(C)n(-c3ccccc3)c2=O)cc1 (stereo not shown) | -4.85 |
| O=C(NNC(=O)c1ccccc1Cl)c1cccnc1 | 17.1 |
| O=C(NC1CCCCC1)c1ccc(S(=O)(=O)NCc2ccco2)cc1 | 11.4 |
| [O-]c1n[n+](-c2ccc(Cl)cc2)cc2ccccc12 | 8.28 |
| CCNC(=O)CC1C(=O)N(c2ccc(C)cc2)C(=O)N1Cc1ccccn1 (stereo not shown) | -32.5 |
| O=C(CN1C(=O)c2ccccc2C1=O)Nc1ccc2c(c1)OCO2 | 4.32 |
| O=C(OCC(=O)N1CCOCC1)c1cc2ccccc2oc1=O | 0.399 |

| Structure (SMILES) | hERG current change (%, negative = inhibition) at 10uM [%] |
| --- | --- |
| COc1cc(Cl)c(C)cc1NCC(=O)Nc1cccc(S(=O)(=O)N2CCCC2)c1 | -7.46 |
| CCn1c(SCC(=O)NCc2ccc3c(c2)OCO3)nc2c(c1=O)SCC2 | -6.01 |
| Cn1c(=O)cc(OCC(=O)N2CCC3(CC2)OCCO3)c2ccccc21 | 9.09 |
| CC(=O)N(c1c(C)n(C)n(-c2ccccc2)c1=O)C1(C(=O)NC2CCCCC2)CCCCC1 | -10.9 |
| CC(C)(C)NC(=O)CSc1nnnn1C(C)(C)C | 5.27 |
| O=C(Nc1cccc(S(=O)(=O)NC2=NCCCCC2)c1)c1cc(-c2ccc(Cl)cc2)nc2ccccc12 | 6.08 |
| Cc1snc(SCC(=O)c2ccc(F)cc2)c1C#N | -0.35 |
| CC(=O)Nc1c(-c2ccccc2)c2cc(Br)ccc2[nH]c1=O | -3.38 |
| CCNC(=S)N(Cc1cc2c(C)ccc(C)c2[nH]c1=O)C1CCCC1 | 32.8 |
| CC12COC3(C(=O)Nc4ccccc4F)CC1CCC32C (stereo not shown) | 26.8 |
| O=c1[nH][nH]cc1C=Nc1ccccc1Cl | 22.2 |
| COc1cccc(/C=N/NC(=O)CCc2n[nH]c(=O)[nH]c2=O)c1O | 3.7 |
| C=C(C)C1CC=C(CN2CC(C)OC(C)C2)CC1 (stereo not shown) | 10.8 |
| COC(=O)Cn1c(CN2CCN(C(=O)c3ccco3)CC2)nc2c1c(=O)n(C)c(=O)n2C | 0.463 |
| CNC(=O)Cn1ncc2c(C)n(Cc3ccc(C)cc3)c(C)c2c1=O | -9.35 |
| COc1ccc(C(=O)NCc2ccc(N3CCN(C)CC3)cc2)cc1 | 5.1 |
| Cc1ccc(C)c(NC(=O)CS(=O)(=O)c2cn(C)c3ccccc23)c1 | -20.8 |
| O=C(Cc1ccccc1)Nc1ccc(NC(=O)c2cccc(Cl)c2)cc1 | 2.08 |
| Cc1ccc(C)c(CSCc2nc3ccccc3[nH]2)c1 | 15.4 |
| COc1ccccc1COC(=O)N/C=C/c1ccco1 | -4.7 |

| Structure (SMILES) | hERG current change (%, negative = inhibition) at 10uM [%] |
| --- | --- |
| CCC(=O)N(c1nnc(SCC(=O)Nc2ccc(N3CCOCC3)cc2)s1)C1CC1 | 13.8 |
| Cc1ccc(C(=O)Nc2ccc(N3CCCC3)cc2)c(C)c1 | 17.6 |
| CC(=O)NC1=C(Nc2ccc(N(C)C)cc2)C(=O)c2ccccc2C1=O | -9.79 |
| COc1ccc(CNC(=O)CCC(=O)Nc2nnc(CC(C)C)s2)cc1 | -1.69 |
| O=C(CC1CCC1)Nc1cccc2c([N+](=O)[O-])cccc12 | 10.1 |
| S=c1[nH]nc(-c2ccc(Cl)cc2)n1Cc1ccccc1 | 5.73 |
| O=C(O)CCCNS(=O)(=O)c1ccccc1 | 15 |
| COC(=O)c1ccc(C)c(NC(=O)CCCN2C(=O)NC(C)(C)C2=O)c1 | 5.43 |
| CC(C)CN(CCCNC(=O)CN1N=C(c2ccc(Cl)cc2)CCC1=O)CC(C)C | -21.8 |
| Cc1ccc(CN2CCN(Cc3cccc(OCCO)c3)CC2CCO)o1 (stereo not shown) | -12.1 |
| COc1ccc(-c2cc(=O)c3cc(O)ccc3o2)cc1 | 16.7 |
| CCc1ccc2nc(N3CCC(C(=O)N4CCC5(CC4)OCCO5)CC3)sc2c1 | -42.5 |
| CCOc1ccc(-n2cc(-c3ccccc3)c3c(=S)nc[nH]c32)cc1 | 24.8 |
| C=CCN(Cc1nc(-c2ccccc2)no1)C(=O)c1ccc2c(c1)OCO2 | -31.5 |
| [O-][n+]1onc2c1CCC(=N/O)/C2=N\Nc1ccccc1 | 8.28 |
| COC(=O)c1ccc(C2C(C(=O)c3ccco3)=C(O)C(=O)N2CC2CCCO2)cc1 (stereo not shown) | -29.8 |
| Cc1ccccc1-c1ccc(Nc2ccc(N3CCOCC3)cc2)nn1 | -76 |
| COc1ccc(CC(=O)NNC(=S)NCC2CC2)cc1OC | 12.1 |
